Source: the supplement of paper PMC8728848
The other results are listed elsewhere or left out.

Key:
Test in all cases: glycan array binding signal (z-score within array); higher = stronger binding
Conditions in all cases: glycan notation: IUPAC condensed, linker removed
[1] = target: Neu5Ac(a2-6)GlcNAc(b1-4)GlcNAc(b1-4)GlcNAc
In short: (§1)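 From the Consortium for Functional Glycomics database, 3228 arrays were curated, keeping only those whose protein sequence was available. Binding is given as a within-array Z-score averaged across arrays sharing a protein sequence and across linkers. Negative Z-scores can be read as non-binding.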

Neu5Ac(a2-8)Neu5Ac = target: Neu5Ac(a2-8)Neu5Ac
In short: as §1

[2] = target: Neu5Ac(a2-8)Neu5Ac(a2-3)Gal(b1-3)GalNAc(b1-4)[Neu5Ac(a2-3)]Gal(b1-4)Glc
In short: as §1

[3] = target: Neu5Ac(a2-8)Neu5Ac(a2-3)Gal(b1-3)GalNAc(b1-4)[Neu5Ac(a2-8)Neu5Ac(a2-3)]Gal(b1-4)Glc
In short: as §1

[4] = target: Neu5Ac(a2-8)Neu5Ac(a2-3)Gal(b1-4)Glc
In short: as §1

[5] = target: Neu5Ac(a2-8)Neu5Ac(a2-3)Gal(b1-4)GlcNAc
In short: as §1

[6] = target: Neu5Ac(a2-8)Neu5Ac(a2-3)[Gal(b1-3)GalNAc(b1-4)]Gal(b1-4)Glc
In short: as §1

[7] = target: Neu5Ac(a2-8)Neu5Ac(a2-3)[GalNAc(b1-4)]Gal(b1-4)Glc
In short: as §1

[8] = target: Neu5Ac(a2-8)Neu5Ac(a2-8)Neu5Ac
In short: as §1

[9] = target: Neu5Ac(a2-8)Neu5Ac(a2-8)Neu5Ac(a2-3)Gal(b1-4)Glc
In short: as §1

[10] = target: Neu5Ac(a2-8)Neu5Ac(a2-8)Neu5Ac(a2-3)[Gal(b1-3)GalNAc(b1-4)]Gal(b1-4)Glc
In short: as §1

[11] = target: Neu5Ac(a2-8)Neu5Ac(a2-8)Neu5Ac(a2-3)[GalNAc(b1-4)]Gal(b1-4)Glc
In short: as §1

[12] = target: Neu5Ac(a2-8)Neu5Ac(a2-8)Neu5Ac(a2-8)Neu5Ac(a2-3)[GalNAc(b1-4)]Gal(b1-4)Glc
In short: as §1

[13] = target: Neu5Ac(a2-8)Neu5Gc(a2-3)Gal(b1-4)GlcNAc
In short: as §1

[14] = target: Neu5Ac(b2-6)Gal(b1-4)GlcNAc
In short: as §1

Neu5Ac(b2-6)GalNAc = target: Neu5Ac(b2-6)GalNAc
In short: as §1

[15] = target: Neu5Ac9Ac(a2-3)Gal(b1-3)GlcNAc
In short: as §1

[16] = target: Neu5Ac9Ac(a2-3)Gal(b1-4)GlcNAc
In short: as §1

[17] = target: Neu5Ac9Ac(a2-6)Gal(b1-4)GlcNAc
In short: as §1

[18] = target: Neu5Gc(a2-3)Gal(b1-3)GlcNAc
In short: as §1

[19] = target: Neu5Gc(a2-3)Gal(b1-3)[Fuc(a1-4)]GlcNAc
In short: as §1

Neu5Gc(a2-3)Gal(b1-4)Glc = target: Neu5Gc(a2-3)Gal(b1-4)Glc
In short: as §1

[20] = target: Neu5Gc(a2-3)Gal(b1-4)GlcNAc
In short: as §1

[21] = target: Neu5Gc(a2-3)Gal(b1-4)GlcNAc(b1-3)Gal(b1-4)GlcNAc(b1-2)Man(a1-3)[Neu5Gc(a2-3)Gal(b1-4)GlcNAc(b1-3)Gal(b1-4)GlcNAc(b1-2)Man(a1-6)]Man(b1-4)GlcNAc(b1-4)GlcNAc
In short: as §1

[22] = target: Neu5Gc(a2-3)Gal(b1-4)[Fuc(a1-3)]GlcNAc
In short: as §1

[23] = target: Neu5Gc(a2-6)Gal(b1-4)GlcNAc
In short: as §1

Neu5Gc(a2-6)GalNAc = target: Neu5Gc(a2-6)GalNAc
In short: as §1

[24] = target: Neu5Gc(a2-8)Neu5Ac(a2-3)Gal(b1-4)GlcNAc
In short: as §1

[25] = target: Neu5Gc(a2-8)Neu5Gc(a2-3)Gal(b1-4)GlcNAc
In short: as §1

[26] = target: Neu5Gc(a2-8)Neu5Gc(a2-3)Gal(b1-4)GlcNAc(b1-3)Gal(b1-4)GlcNAc
In short: as §1

[27] = target: Neu5Gc(a2-8)Neu5Gc(a2-6)Gal(b1-4)GlcNAc
In short: as §1

[28] = target: Neu5Gc(b2-6)Gal(b1-4)GlcNAc
In short: as §1

B1: PX14343B-bfa-546-20-546 (Bacteroides fragilis) (protein)
chain: CDLERYPLTDLSEETFWNSESNAELALTSLYRGSLTDGVEYNPSDWWSYHGMIMMEHLSDNAFDRRGENNPFFKISSGNLTADNAFIKRYWETSYKRIGYCNRFLVGIQNSSESEKKTRMIAEARFLRATQYFYLASYFKNVPLVENVLTGEEANNVTKTSQADILKWCVTEFTAAAADLPRFSAIPAGEAGRACKQAALAFLGRTCMLQKDWKSGAKAFHDIMELGDNAINANYQELFYPSTGTSNKENIFYIQYLENYLGTGLPQHALSAKDGGWSLVNPAADLYESYEFKDGTPFSYDDPRYDPSNLGKDRDPRLDYTIYYNGAIFMGTEYKMSPDYSAAKKEKLDYTSEASRTGFMMRKYFEESTPINDVQSANGLTPVIRYAEVLLGYLECLVEDNQTITQGILDETINAVRGRASVNMPPVTEVTPAKLREIVRHERRIELAMEGIRYWDIMRWGIAHEVLSQKIWGAPYPGSTQYATTTKEVDPTGNYRWYVGKRAFRNPTDYTWPIPQSEQNINPNLRD
In the case of B1, the “glycan array binding signal (z-score)” value [1] is reported as -0.131, the “glycan array binding signal (z-score)” value (Neu5Ac(a2-8)Neu5Ac) is reported as -0.11 and the “glycan array binding signal (z-score)” value [2] is reported as -0.129. For the same binder, the “glycan array binding signal (z-score)” value [3] was -0.12, the “glycan array binding signal (z-score)” value [4] was -0.13 and the “glycan array binding signal (z-score)” value [5] was -0.135. The “glycan array binding signal (z-score)” value [6] was -0.112, the “glycan array binding signal (z-score)” value [7] was -0.131 and the “glycan array binding signal (z-score)” value [8] was -0.131. For the same binder, the “glycan array binding signal (z-score)” value [9] was -0.118, the “glycan array binding signal (z-score)” value [10] was -0.123 and the “glycan array binding signal (z-score)” value [11] was -0.126. The “glycan array binding signal (z-score)” value [12] was -0.118, the “glycan array binding signal (z-score)” value [13] was -0.126 and the “glycan array binding signal (z-score)” value [14] was -0.116. The “glycan array binding signal (z-score)” value (Neu5Ac(b2-6)GalNAc) was -0.112, the “glycan array binding signal (z-score)” value [15] was -0.124 and the “glycan array binding signal (z-score)” value [16] was -0.12. For the same binder, the “glycan array binding signal (z-score)” value [17] was -0.13, the “glycan array binding signal (z-score)” value [18] was -0.117 and the “glycan array binding signal (z-score)” value [19] was -0.115. For the same binder, the “glycan array binding signal (z-score)” value (Neu5Gc(a2-3)Gal(b1-4)Glc) was -0.129, the “glycan array binding signal (z-score)” value [20] was -0.122 and the “glycan array binding signal (z-score)” value [21] was -0.129. For the same binder, the “glycan array binding signal (z-score)” value [22] was -0.113, the “glycan array binding signal (z-score)” value [23] was -0.098 and the “glycan array binding signal (z-score)” value (Neu5Gc(a2-6)GalNAc) was -0.114. For the same binder, the “glycan array binding signal (z-score)” value [24] was -0.128, the “glycan array binding signal (z-score)” value [25] was -0.122 and the “glycan array binding signal (z-score)” value [26] was -0.088. For the same binder, the “glycan array binding signal (z-score)” value [27] was -0.114 and the “glycan array binding signal (z-score)” value [28] was -0.109.
